Assay results published in PubChem BioAssay AID1458 (National Center for Advancing Translational Sciences (NCATS), 2008).
In all, about 210,000 compounds went through this assay and about 5,900 (2.8%) were called active. The inconclusive results got no clear call from the source; some entries with a clear call stand among them for comparison. The call rests on the fitted dose curve; in most records, active means well fitted activation curve with a large enough effect; inconclusive means small, poorly fitted or top-dose-only effect; inactive means no such curve, though single readings can be large or run the other way. A potency beside an inconclusive call is a rough fit, not a confirmed value.

Assay: qHTS Assay for Enhancers of SMN2 Splice Variant Expression; further: nearly all actives have a fitted effect of over 55% in size; on activity change, positive = activation: % of control where 0% means no effect
Conditions: HEK293 SMN2-luciferase splicing reporter, luminescence, 30-36 h; activity change, positive = activation: at 46.1 µM (top of the series)
Outline: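 qHTS luciferase splicing reporter: luminescence rises when SMN2 exon 7 is included in transfected HEK293 cells. Compound exposure lasted 30-36 h at 37C, with 4.5 mM final sodium butyrate as control, followed by a ONE-Glo read.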
Potency means the concentration at half of the fitted maximal effect; tags describe the fitted curve by direction and shape.

Row | Compound | Potency | activity change, positive = activation
1 | CN1CCN(c2ccc(NC(=O)c3cccs3)cc2)CC1 | active: 11.2 µM | –
2 | Cc1cc(C(F)F)n2nc(C(=O)Nc3c(F)cc(F)cc3Br)nc2n1 | inconclusive: 0.447 µM [activator, full curve, poor fit] | –
3 | Cc1cc(C)cc(NC(=S)NCc2cccs2)c1 | inconclusive: 7.94 µM [activator, partial curve, poor fit] | –
4 | CC(C)(C)c1ccc(C(=O)Nc2cc(-c3nc4ccccc4o3)ccc2Cl)cc1 | – | inactive: -3.63%
5 | COP(=O)(OC)c1nc(-c2cccc3ccccc23)oc1N1CCCCC1 | – | inactive: -20.2%
6 | S=C(NCCc1ccccn1)Nc1ccc(Cl)cc1 | inconclusive: 8.91 µM [activator, partial curve] | –
7 | CC(=O)Nc1ccc(NC(=O)c2oc3cc(C)c(C)cc3c2C)cc1 | – | inactive: -15.4%
8 | CCOC(=O)c1c(C)[nH]c(C2=NNC(=Nc3ccccc3OC)SC2)c1C | active: 11.2 µM | –
9 | COc1cnn(-c2ccc(Br)cc2)c(=O)c1SCc1ccccc1 | inconclusive: 11.2 µM [activator, partial curve] | –
10 | COc1ccccc1OCCCOc1ccc([N+](=O)[O-])cc1Cl | inconclusive: 35.5 µM [activator, single point] | –
11 | CC1CCCN(C(=O)c2cc(F)c(F)cc2Cl)C1 (stereo unspecified) | inconclusive: 5.62 µM [activator, partial curve, poor fit] | –
12 | OCC1CCCN(C(=S)NCCc2ccccc2)C1 (stereo unspecified) | inconclusive: 14.1 µM [activator, single point] | –
13 | CCOC(=O)C1CCN(C(=O)C2(NC(=O)Nc3ccccc3Cl)CCCCC2)CC1 | inconclusive: 6.31 µM [activator, partial curve] | –
14 | CN(C)c1ccc(/C=C(\C#N)C(=O)NCc2ccco2)cc1 | inconclusive: 25.1 µM [activator, single point] | –
15 | COc1ccc(OC)c(-c2csc(-c3c(N)c(C(=O)c4ccccc4)n4ccccc34)n2)c1 | – | inactive: -0.921%
16 | O=[N+]([O-])c1cc(C(F)(F)F)ccc1NCCOc1ccccc1 | inconclusive: 20 µM [activator, single point] | –
17 | CCN(CC)S(=O)(=O)c1cc(NC(=O)COC(=O)c2ccc(NC(=O)CC#N)cc2)ccc1C | inconclusive: 12.6 µM [activator, single point] | –
18 | Cc1ccc(C(=O)Nc2nc(=O)n(C)s2)cc1 | inconclusive: 20 µM [activator, single point] | –
19 | CCCc1nc(N)c(C#N)c(-c2ccco2)c1CC | inconclusive: 0.02 µM [activator, full curve, poor fit] | –
20 | O=C(COc1ccccc1)Nc1ccc(S(=O)(=O)N2CCOCC2)cc1 | – | inactive: -5.94%
21 | Cc1nc2c(-c3ccccc3)c(C)nn2c(C)c1CCC(=O)NCc1ccc(F)cc1 | – | inactive: -8.76%
22 | O=Cc1ccccc1Oc1ccccc1 | – | inactive: -2.45%
23 | Cc1cc(C)c(C(=O)COC(=O)c2cc([N+](=O)[O-])ccc2NCCO)cc1C | inconclusive: 31.6 µM [activator, single point] | –
24 | O=C(Nc1ccon1)c1ccccc1Cl | inconclusive: 8.91 µM [activator, partial curve] | –

Row | Compound | Potency | activity change, positive = activation
25 | COC(=O)c1cc(Br)c(=O)n(CCN2CCCC2)c1 | inconclusive: 3.55 µM [activator, single point] | –
26 | COc1ccc2oc(=O)c(-c3csc(Nc4ccc(O)cc4)n3)cc2c1 | inconclusive: 0.891 µM [activator, full curve] | –
27 | Nc1cc(=O)[nH]c(=O)n1CC1CC1 | inconclusive: 8.91 µM [activator, partial curve] | –
28 | O=C(CCN1C(=O)c2ccccc2C1=O)C1=NN[C@@H]2C(=O)N(c3ccc(F)cc3)C(=O)[C@H]12 | inconclusive: 0.0794 µM [activator, full curve] | –
29 | COc1ccc(CNC(=O)c2csc(Cc3ccccc3)n2)cc1 | inconclusive: 20 µM [activator, single point] | –
30 | COCCCNCCCCOc1ccc(Br)cc1C | – | inactive: 2.41%
31 | Cc1ccc(Nc2nc(N)nc(CSCCO)n2)cc1 | inconclusive: 20 µM [activator, single point] | –
32 | COc1ccc(C2=Nn3c(nnc3-c3cccnc3)SC2)cc1OC | inconclusive: 12.6 µM [activator, single point] | –
33 | COc1ccc(C(=O)N/N=C2\CCc3ccccc32)cc1OC | inconclusive: 35.5 µM [activator, single point] | –
34 | CCOC(=O)c1cnc(-n2cc(C)cn2)nc1Nc1ccccc1OC | inconclusive: 0.0089 µM [activator, full curve] | –
35 | CC(=O)NCCN=C(C)c1sc2ccccc2c1O | inconclusive: 10 µM [activator, partial curve] | –
36 | O=C(CCNC(=O)Cn1cnc2ccccc2c1=O)NCC1COc2ccccc2O1 (stereo unspecified) | inconclusive: 17.8 µM [activator, partial curve, poor fit] | –
37 | O=C(/C=C/c1cccc(Cl)c1)Nc1ncccn1 | inconclusive: 35.5 µM [activator, single point] | –
38 | COc1ccc(C)c2sc(NC(=O)C3=COCCO3)nc12 | inconclusive: 11.2 µM [activator, partial curve, poor fit] | –
39 | Cc1csc(NC(=O)CSc2nc3sc(C)c(C)c3c(=O)[nH]2)n1 | – | inactive: 13.2%
40 | O=C(Nn1c(SCc2cccc([N+](=O)[O-])c2)nc2ccccc2c1=O)c1ccccc1 | inconclusive: 14.1 µM [activator, single point] | –
41 | O=Cc1cn(-c2ccccc2)nc1-c1cc2cc(O)ccc2oc1=O | inconclusive: 3.55 µM [activator, full curve, poor fit] | –
42 | COC(=O)c1ccc(NC(=O)C(C)N2C(=O)c3ccccc3C2=O)cc1 (stereo unspecified) | inconclusive: 1.58 µM [activator, full curve] | –
43 | N#C/C(=N\Nc1ccc(Cl)cc1)C(=N)N1CCCCC1 | inconclusive: 0.562 µM [activator, full curve] | –
44 | COC(=O)c1[nH]c2cc(OC)ccc2c1NC(=O)CN1CCOCC1 | – | inactive: -10%
45 | COC(=O)Nc1ncc(CN2CCC(c3ccccc3)CC2)s1 | inconclusive: 3.16 µM [activator, full curve] | –
46 | O=C(O)c1cccc(-c2ccc(/C=N/NC(=O)c3cccnc3)o2)c1 | inconclusive: 10 µM [activator, partial curve, poor fit] | –
47 | COc1cccc(C(=O)Nc2ccccc2F)c1 | active: 11.2 µM | –
48 | Cc1ccccc1S(=O)(=O)Cc1ccc(C(=O)N2CCN(c3ncccn3)CC2)o1 | inconclusive: 0.0045 µM [activator, full curve] | –

Row | Compound | Potency | activity change, positive = activation
49 | c1cn2cc(CN3CCOCC3)nc2s1 | inconclusive: 3.16 µM [activator, single point] | –
50 | CCOc1ccc(/C=N/Nc2ccccn2)cc1 | active: 1.58 µM | –
51 | Cc1ccc(-n2nc(C(=O)Nc3ccc(F)cc3F)c3c4ccccc4n(C)c3c2=O)cc1 | – | inactive: 2.13%
52 | O=C(CSc1cn(Cc2ccccc2)c2ccccc12)Nc1nccs1 | inconclusive: 22.4 µM [activator, single point] | –
53 | c1ccc(CNc2nc3ccccc3[nH]2)cc1 | inconclusive: 7.94 µM [activator, single point] | –
54 | O=C(N/N=C/c1ccncc1)c1cccc([N+](=O)[O-])c1 | inconclusive: 0.316 µM [activator, full curve, poor fit] | –
55 | CCNC(=O)Nn1c(C)nnc1C | inconclusive: 0.0079 µM [activator, full curve] | –
56 | CC1(C)CC(CC(=O)Nc2ccccn2)C(=O)O1 (stereo unspecified) | inconclusive: 4.47 µM [activator, partial curve] | –
57 | CC1(C)N=C(N)N=C(N)N1c1cccc(CSc2ccccc2)c1 | – | inactive: -22% [at 9.22 µM]
58 | COc1ccc(CNC(=O)CN2C(=O)C3CCCN3c3ncc(Cl)cc32)cc1 (stereo unspecified) | inconclusive: 0.0158 µM [activator, full curve] | –
59 | Cc1nc2sc(C(c3cccc(F)c3)N3CCCCC3)c(O)n2n1 (stereo unspecified) | inconclusive: 0.398 µM [activator, full curve, poor fit] | –
60 | Cc1ccc(C(=O)CCC(=O)O)cc1 | – | inactive: -2.78%
61 | O=C(NN1CCCCC1)c1cccc(COc2ccc(Cl)cc2)c1 | active: 14.1 µM | –
62 | COc1cc(NC(=O)CN2CCN(S(=O)(=O)c3ccc(C(C)C)cc3)CC2)cc(OC)c1 | inconclusive: 0.01 µM [activator, full curve, poor fit] | –
63 | COc1ccc(CCNC(=O)c2ccc3c(c2)N(Cc2ccccc2)C(=O)c2ccccc2S3=O)cc1OC (stereo unspecified) | inconclusive: 12.6 µM [activator, single point] | –
64 | Cc1ccc(C)c(Cn2c3ccccc3c3cnn(CC(=O)NC(C)CCc4ccccc4)c(=O)c32)c1 (stereo unspecified) | – | inactive: 12.1%
65 | COc1cc(CO)ccc1Oc1nnnn1-c1ccc(C(N)=O)cc1 | inconclusive: 0.004 µM [activator, full curve, poor fit] | –
66 | CS(=O)(=O)c1ccc(C(=O)NCCN2C(=O)S/C(=C\c3cccnc3)C2=O)cc1[N+](=O)[O-] | inconclusive: 25.1 µM [activator, single point] | –
67 | COC(=O)c1c[nH]n2c(=O)c(Cl)c(C)nc12 | inconclusive: 35.5 µM [activator, single point] | –
68 | Cc1ccccc1NC(=O)c1cccc(S(=O)(=O)Oc2ccc([N+](=O)[O-])cc2)c1 | – | inactive: -11.7%
69 | COc1ccc(CN2C(=O)C(NC(=O)c3cccc(C)c3)(C(F)(F)F)N=C2c2ccccc2)cc1 (stereo unspecified) | – | inactive: -6.05%
70 | COC(=O)c1ccc(NC(=O)c2cccc(OC)c2)cc1 | inconclusive: 35.5 µM [activator, single point] | –
71 | O=C(O)c1cc(S(=O)(=O)N2CCN(c3ccccn3)CC2)ccc1Cl | – | inactive: 8.25%
